Experimental data: PMC10302205, “Saccharomyces cerevisiae Δ9-desaturase Ole1 forms a supercomplex with Slc1 and Dga1” (The Journal of Biological Chemistry, 2023)
Results are given in words; binding and its absence hold for the method and conditions named. Some entries that bind do so weakly or less than the wild type. For some of these results: Tags and fused reporters may be left off the sequences shown.

T1: Ole1-Myc-Cub-LexA-VP16 (S. cerevisiae, UniProt P21147 1-510)
T1 construct: Ole1, Δ9 acyl-CoA (stearoyl-CoA) desaturase of S. cerevisiae; the endogenous chromosomal OLE1 gene, with the tag at its carboxyl end; The tag was put behind the chromosomal gene, so the whole protein is likely; also called Δ9 acyl-CoA desaturase Ole1; Ole1-Cub-LexA-VP16; not shown: Myc, C-terminal, kept; Cub-LexA-VP16, C-terminal, kept
T1 sequence (looked up): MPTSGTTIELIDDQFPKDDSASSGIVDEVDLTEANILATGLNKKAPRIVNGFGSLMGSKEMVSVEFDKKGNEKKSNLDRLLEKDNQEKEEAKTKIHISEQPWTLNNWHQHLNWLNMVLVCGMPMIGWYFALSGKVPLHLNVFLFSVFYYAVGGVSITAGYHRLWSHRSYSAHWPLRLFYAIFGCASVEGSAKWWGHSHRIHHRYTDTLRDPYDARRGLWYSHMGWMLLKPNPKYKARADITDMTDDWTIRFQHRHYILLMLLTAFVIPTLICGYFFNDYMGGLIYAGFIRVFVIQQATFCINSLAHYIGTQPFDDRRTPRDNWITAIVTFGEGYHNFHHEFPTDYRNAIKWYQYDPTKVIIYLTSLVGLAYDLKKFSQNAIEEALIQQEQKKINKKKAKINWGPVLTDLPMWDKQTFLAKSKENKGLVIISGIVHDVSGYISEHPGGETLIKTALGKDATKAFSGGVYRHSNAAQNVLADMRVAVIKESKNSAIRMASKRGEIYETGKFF

T2: Slc1-Cub-LexA-VP16 (S. cerevisiae, UniProt P33333 1-303)
T2 construct: Slc1, lysophosphatidic acid acyltransferase of S. cerevisiae; The end of the tag is read from the order of the printed label; also called Slc1 bait (strain YBG2); pTMBV4-SLC1; not shown: Cub-LexA-VP16, C-terminal, kept
T2 sequence (looked up): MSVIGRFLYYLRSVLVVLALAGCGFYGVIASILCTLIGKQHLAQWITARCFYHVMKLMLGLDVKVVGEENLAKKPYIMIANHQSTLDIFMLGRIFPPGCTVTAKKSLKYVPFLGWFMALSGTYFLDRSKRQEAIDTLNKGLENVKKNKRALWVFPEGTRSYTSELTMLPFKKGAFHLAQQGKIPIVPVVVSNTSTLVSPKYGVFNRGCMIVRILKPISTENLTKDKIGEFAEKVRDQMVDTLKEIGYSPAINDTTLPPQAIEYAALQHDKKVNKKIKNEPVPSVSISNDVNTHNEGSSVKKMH


Tests used:
Ole1-Myc-Cub-LexA-VP16 = target: T1, Ole1-Myc-Cub-LexA-VP16; experiment: two-hybrid; integrated membrane yeast two-hybrid (split ubiquitin): Ole1-Myc-Cub-LexA-VP16 from the endogenous locus of strain YBG1 as bait, NubG fusions from plasmids as prey; growth on SD-W-H-A with 6 mM 3-aminotriazole and β-galactosidase activity of cell extracts
Slc1-Cub-LexA-VP16 = target: T2, Slc1-Cub-LexA-VP16; experiment: two-hybrid; membrane yeast two-hybrid (split ubiquitin): plasmid-borne Slc1-Cub-LexA-VP16 as bait and NubG fusions as prey in NMY51; growth on SD-W-L-H-A with 6 mM 3-aminotriazole and β-galactosidase activity of cell extracts

binding (Ole1-Myc-Cub-LexA-VP16) | binding (Slc1-Cub-LexA-VP16) | Binder
 | binds | NubG-Dga1_(38–418) (domain or fragment, UniProt Q08650 38-418) EQTLKPQLESCCPLATPFERRLQTLAVAWHTSSFVLFSIFTLFAISTPALWVLAIPYMIYFFFDRSPATGEVVNRYSLRFRSLPIWKWYCDYFPISLIKTVNLKPTFTLSKNKRVNEKNYKIRLWPTKYSINLKSNSTIDYRNQECTGPTYLFGYHPHGIGALGAFGAFATEGCNYSKIFPGIPISLMTLVTQFHIPLYRDYLLALGISSVSRKNALRTLSKNQSICIVVGGARESLLSSTNGTQLILNKRKGFIKLAIQTGNINLVPVFAFGEVDCYNVLSTKKDSVLGKMQLWFKENFGFTIPIFYARGLFNYDFGLLPFRAPINVVVGRPIYVEKKITNPPDDVVNHFHDLYIAELKRLYYENREKYGVPDAELKIVG
no binding |  | NubG-Dga1_(1–318) (domain or fragment, UniProt Q08650 1-318) MSGTFNDIRRRKKEEGSPTAGITERHENKSLSSIDKREQTLKPQLESCCPLATPFERRLQTLAVAWHTSSFVLFSIFTLFAISTPALWVLAIPYMIYFFFDRSPATGEVVNRYSLRFRSLPIWKWYCDYFPISLIKTVNLKPTFTLSKNKRVNEKNYKIRLWPTKYSINLKSNSTIDYRNQECTGPTYLFGYHPHGIGALGAFGAFATEGCNYSKIFPGIPISLMTLVTQFHIPLYRDYLLALGISSVSRKNALRTLSKNQSICIVVGGARESLLSSTNGTQLILNKRKGFIKLAIQTGNINLVPVFAFGEVDCYNVL
binds |  | NubG-Dga1_(30–418) (domain or fragment, UniProt Q08650 30-418) SLSSIDKREQTLKPQLESCCPLATPFERRLQTLAVAWHTSSFVLFSIFTLFAISTPALWVLAIPYMIYFFFDRSPATGEVVNRYSLRFRSLPIWKWYCDYFPISLIKTVNLKPTFTLSKNKRVNEKNYKIRLWPTKYSINLKSNSTIDYRNQECTGPTYLFGYHPHGIGALGAFGAFATEGCNYSKIFPGIPISLMTLVTQFHIPLYRDYLLALGISSVSRKNALRTLSKNQSICIVVGGARESLLSSTNGTQLILNKRKGFIKLAIQTGNINLVPVFAFGEVDCYNVLSTKKDSVLGKMQLWFKENFGFTIPIFYARGLFNYDFGLLPFRAPINVVVGRPIYVEKKITNPPDDVVNHFHDLYIAELKRLYYENREKYGVPDAELKIVG
binds |  | NubG-Gpt2 (enzyme, S. cerevisiae, UniProt P36148 1-743, looked up, Gpt2, glycerophosphate acyltransferase of S. cerevisiae; also called pNubG-GPT2; pADSL-NubG-GPT2; source: yeast two-hybrid fusion (split ubiquitin prey), from plasmid pADSL-NubG-GPT2 in S. cerevisiae; not shown: NubG, N-terminal, kept) MSAPAADHNAAKPIPHVPQASRRYKNSYNGFVYNIHTWLYDVSVFLFNILFTIFFREIKVRGAYNVPEVGVPTILVCAPHANQFIDPALVMSQTRLLKTSAGKSRSRMPCFVTAESSFKKRFISFFGHAMGGIPVPRIQDNLKPVDENLEIYAPDLKNHPEIIKGRSKNPQTTPVNFTKRFSAKSLLGLPDYLSNAQIKEIPDDETIILSSPFRTSKSKVVELLTNGTNFKYAEKIDNTETFQSVFDHLHTKGCVGIFPEGGSHDRPSLLPIKAGVAIMALGAVAADPTMKVAVVPCGLHYFHRNKFRSRAVLEYGEPIVVDGKYGEMYKDSPRETVSKLLKKITNSLFSVTENAPDYDTLMVIQAARRLYQPVKVRLPLPAIVEINRRLLFGYSKFKDDPRIIHLKKLVYDYNRKLDSVGLKDHQVMQLKTTKLEALRCFVTLIVRLIKFSVFAILSLPGSILFTPIFIICRVYSEKKAKEGLKKSLVKIKGTDLLATWKLIVALILAPILYVTYSILLIILARKQHYCRIWVPSNNAFIQFVYFYALLVFTTYSSLKTGEIGVDLFKSLRPLFVSIVYPGKKIEEIQTTRKNLSLELTAVCNDLGPLVFPDYDKLATEIFSKRDGYDVSSDAESSISRMSVQSRSRSSSIHSIGSLASNALSRVNSRGSLTDIPIFSDAKQGQWKSEGETSEDEDEFDEKNPAIVQTARSSDLNKENSRNTNISSKIASLVRQKREHEKKE
no binding |  | NubG-Dga1_(1–288) (domain or fragment, UniProt Q08650 1-288) MSGTFNDIRRRKKEEGSPTAGITERHENKSLSSIDKREQTLKPQLESCCPLATPFERRLQTLAVAWHTSSFVLFSIFTLFAISTPALWVLAIPYMIYFFFDRSPATGEVVNRYSLRFRSLPIWKWYCDYFPISLIKTVNLKPTFTLSKNKRVNEKNYKIRLWPTKYSINLKSNSTIDYRNQECTGPTYLFGYHPHGIGALGAFGAFATEGCNYSKIFPGIPISLMTLVTQFHIPLYRDYLLALGISSVSRKNALRTLSKNQSICIVVGGARESLLSSTNGTQLILNKR

More lines, now with the values behind:

Binder | binding (Ole1-Myc-Cub-LexA-VP16) | binding (Slc1-Cub-LexA-VP16)
NubG-Dga1REK (Dga1 R404A, E405A, K406A) (enzyme, UniProt Q08650 1-418) MSGTFNDIRRRKKEEGSPTAGITERHENKSLSSIDKREQTLKPQLESCCPLATPFERRLQTLAVAWHTSSFVLFSIFTLFAISTPALWVLAIPYMIYFFFDRSPATGEVVNRYSLRFRSLPIWKWYCDYFPISLIKTVNLKPTFTLSKNKRVNEKNYKIRLWPTKYSINLKSNSTIDYRNQECTGPTYLFGYHPHGIGALGAFGAFATEGCNYSKIFPGIPISLMTLVTQFHIPLYRDYLLALGISSVSRKNALRTLSKNQSICIVVGGARESLLSSTNGTQLILNKRKGFIKLAIQTGNINLVPVFAFGEVDCYNVLSTKKDSVLGKMQLWFKENFGFTIPIFYARGLFNYDFGLLPFRAPINVVVGRPIYVEKKITNPPDDVVNHFHDLYIAELKRLYYENAAAYGVPDAELKIVG | binds | 
NubG-Dga1 S17D (enzyme, UniProt Q08650 1-418) MSGTFNDIRRRKKEEGDPTAGITERHENKSLSSIDKREQTLKPQLESCCPLATPFERRLQTLAVAWHTSSFVLFSIFTLFAISTPALWVLAIPYMIYFFFDRSPATGEVVNRYSLRFRSLPIWKWYCDYFPISLIKTVNLKPTFTLSKNKRVNEKNYKIRLWPTKYSINLKSNSTIDYRNQECTGPTYLFGYHPHGIGALGAFGAFATEGCNYSKIFPGIPISLMTLVTQFHIPLYRDYLLALGISSVSRKNALRTLSKNQSICIVVGGARESLLSSTNGTQLILNKRKGFIKLAIQTGNINLVPVFAFGEVDCYNVLSTKKDSVLGKMQLWFKENFGFTIPIFYARGLFNYDFGLLPFRAPINVVVGRPIYVEKKITNPPDDVVNHFHDLYIAELKRLYYENREKYGVPDAELKIVG | binds | 
NubG-Dga1 S17A (enzyme, UniProt Q08650 1-418) MSGTFNDIRRRKKEEGAPTAGITERHENKSLSSIDKREQTLKPQLESCCPLATPFERRLQTLAVAWHTSSFVLFSIFTLFAISTPALWVLAIPYMIYFFFDRSPATGEVVNRYSLRFRSLPIWKWYCDYFPISLIKTVNLKPTFTLSKNKRVNEKNYKIRLWPTKYSINLKSNSTIDYRNQECTGPTYLFGYHPHGIGALGAFGAFATEGCNYSKIFPGIPISLMTLVTQFHIPLYRDYLLALGISSVSRKNALRTLSKNQSICIVVGGARESLLSSTNGTQLILNKRKGFIKLAIQTGNINLVPVFAFGEVDCYNVLSTKKDSVLGKMQLWFKENFGFTIPIFYARGLFNYDFGLLPFRAPINVVVGRPIYVEKKITNPPDDVVNHFHDLYIAELKRLYYENREKYGVPDAELKIVG | binds | 
NubG-Dga1_(1–398) (domain or fragment, UniProt Q08650 1-398) MSGTFNDIRRRKKEEGSPTAGITERHENKSLSSIDKREQTLKPQLESCCPLATPFERRLQTLAVAWHTSSFVLFSIFTLFAISTPALWVLAIPYMIYFFFDRSPATGEVVNRYSLRFRSLPIWKWYCDYFPISLIKTVNLKPTFTLSKNKRVNEKNYKIRLWPTKYSINLKSNSTIDYRNQECTGPTYLFGYHPHGIGALGAFGAFATEGCNYSKIFPGIPISLMTLVTQFHIPLYRDYLLALGISSVSRKNALRTLSKNQSICIVVGGARESLLSSTNGTQLILNKRKGFIKLAIQTGNINLVPVFAFGEVDCYNVLSTKKDSVLGKMQLWFKENFGFTIPIFYARGLFNYDFGLLPFRAPINVVVGRPIYVEKKITNPPDDVVNHFHDLYIAELKR | no binding | 
NubG-Dga1_(1–240) (domain or fragment, UniProt Q08650 1-240) MSGTFNDIRRRKKEEGSPTAGITERHENKSLSSIDKREQTLKPQLESCCPLATPFERRLQTLAVAWHTSSFVLFSIFTLFAISTPALWVLAIPYMIYFFFDRSPATGEVVNRYSLRFRSLPIWKWYCDYFPISLIKTVNLKPTFTLSKNKRVNEKNYKIRLWPTKYSINLKSNSTIDYRNQECTGPTYLFGYHPHGIGALGAFGAFATEGCNYSKIFPGIPISLMTLVTQFHIPLYRDYL | no binding | 
